# Measurements taken from the supplement of paper PMC8728848.
# Some of the results follow.
# B1: PA-IL (Pseudomonas aeruginosa), Q05097 (protein)
# chain: MAWKGEVLANNEAGQVTSIIYNPGDVITIVAAGWASYGPTQKWGPQGDREHPDQGLICHDAFCGALVMKIGNSGTIPVNTGLFRWVAPNNVQGAITLIYNDVPGTYGNNSGSFSVNIGKDQS
# Key:
# Experiment in all cases: glycan array binding signal (z-score within array); higher = stronger binding
# Conditions in all cases: glycan notation: IUPAC condensed, linker removed
# [1] = biological target: Gal(b1-3)GalNAc(b1-3)Gal(a1-4)Gal(b1-4)Glc
# In short: (§1)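 Columns mapping to the same glycan were averaged after glycan names were converted to IUPAC-condensed notation. The data come from 3228 arrays in the Consortium for Functional Glycomics database, limited to those with an available protein sequence. Binding is reported as a within-array Z-score averaged across arrays of one protein sequence and across linkers.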
# [2] = biological target: Gal(b1-3)GalNAc(b1-4)Gal(b1-4)Glc
# In short: as §1
# [3] = biological target: Gal(b1-3)GalNAc(b1-4)[Neu5Ac(a2-3)]Gal(b1-4)Glc
# In short: as §1
# Gal(b1-3)GlcNAc = biological target: Gal(b1-3)GlcNAc
# In short: as §1
# [4] = biological target: Gal(b1-3)GlcNAc(a1-3)Gal(b1-4)GlcNAc
# In short: as §1
# [5] = biological target: Gal(b1-3)GlcNAc(a1-6)Gal(b1-4)GlcNAc
# In short: as §1
# Gal(b1-3)GlcNAc(b1-2)Man = biological target: Gal(b1-3)GlcNAc(b1-2)Man
# In short: as §1
# [6] = biological target: Gal(b1-3)GlcNAc(b1-2)Man(a1-3)[Gal(b1-3)GlcNAc(b1-2)Man(a1-6)]Man(b1-4)GlcNAc(b1-4)GlcNAc
# In short: as §1
# [7] = biological target: Gal(b1-3)GlcNAc(b1-2)Man(a1-3)[Gal(b1-3)GlcNAc(b1-2)Man(a1-6)]Man(b1-4)GlcNAc(b1-4)[Fuc(a1-6)]GlcNAc
# In short: as §1
# [8] = biological target: Gal(b1-3)GlcNAc(b1-2)Man(a1-3)[GlcNAc(b1-4)][Gal(b1-3)GlcNAc(b1-2)Man(a1-6)]Man(b1-4)GlcNAc(b1-4)GlcNAc
# In short: as §1
# [9] = biological target: Gal(b1-3)GlcNAc(b1-2)[Gal(b1-3)GlcNAc(b1-6)]Man(a1-6)[Gal(b1-3)GlcNAc(b1-2)Man(a1-3)]Man(b1-4)GlcNAc(b1-4)GlcNAc
# In short: as §1
# [10] = biological target: Gal(b1-3)GlcNAc(b1-3)Gal(b1-3)GlcNAc
# In short: as §1
# [11] = biological target: Gal(b1-3)GlcNAc(b1-3)Gal(b1-4)Glc
# In short: as §1
# [12] = biological target: Gal(b1-3)GlcNAc(b1-3)Gal(b1-4)GlcNAc
# In short: as §1
# [13] = biological target: Gal(b1-3)GlcNAc(b1-3)Gal(b1-4)GlcNAc(b1-2)Man(a1-3)[Gal(b1-3)GlcNAc(b1-3)Gal(b1-4)GlcNAc(b1-2)Man(a1-6)]Man(b1-4)GlcNAc(b1-4)GlcNAc
# In short: as §1
# [14] = biological target: Gal(b1-3)GlcNAc(b1-3)Gal(b1-4)GlcNAc(b1-2)[Gal(b1-3)GlcNAc(b1-3)Gal(b1-4)GlcNAc(b1-6)]Man(a1-6)[Gal(b1-3)GlcNAc(b1-3)Gal(b1-4)GlcNAc(b1-2)Man(a1-3)]Man(b1-4)GlcNAc(b1-4)[Fuc(a1-6)]GlcNAc
# In short: as §1
# [15] = biological target: Gal(b1-3)GlcNAc(b1-3)Gal(b1-4)GlcNAc(b1-3)Gal(b1-4)GlcNAc(b1-2)[Gal(b1-3)GlcNAc(b1-3)Gal(b1-4)GlcNAc(b1-3)Gal(b1-4)GlcNAc(b1-6)]Man(a1-6)[Gal(b1-3)GlcNAc(b1-3)Gal(b1-4)GlcNAc(b1-3)Gal(b1-4)GlcNAc(b1-2)Man(a1-3)]Man(b1-4)GlcNAc(b1-4)[Fuc(a1-6)]GlcNAc
# In short: as §1
# [16] = biological target: Gal(b1-3)GlcNAc(b1-3)Gal(b1-4)GlcNAc(b1-6)[Gal(b1-3)GlcNAc(b1-3)]Gal(b1-4)Glc
# In short: as §1
# [17] = biological target: Gal(b1-3)GlcNAc(b1-3)Gal(b1-4)[Fuc(a1-3)]GlcNAc
# In short: as §1
# [18] = biological target: Gal(b1-3)GlcNAc(b1-3)Gal(b1-4)[Fuc(a1-3)]GlcNAc(b1-6)[Gal(b1-3)GlcNAc(b1-3)]Gal(b1-4)Glc
# In short: as §1
# [19] = biological target: Gal(b1-3)GlcNAc(b1-3)GalNAc
# In short: as §1
# [20] = biological target: Gal(b1-3)GlcNAc(b1-6)Gal(b1-4)GlcNAc
# In short: as §1
# [21] = biological target: Gal(b1-3)GlcNAc(b1-6)GalNAc
# In short: as §1
# [22] = biological target: Gal(b1-3)GlcNAc(b1-6)[Gal(b1-3)]GalNAc
# In short: as §1
# Gal(b1-3)GlcNAc6S = biological target: Gal(b1-3)GlcNAc6S
# In short: as §1
# [23] = biological target: Gal(b1-3)[Fuc(a1-4)]GlcNAc
# In short: as §1
# [24] = biological target: Gal(b1-3)[Fuc(a1-4)]GlcNAc(b1-2)Man
# In short: as §1
# [25] = biological target: Gal(b1-3)[Fuc(a1-4)]GlcNAc(b1-2)Man(a1-3)[Gal(b1-3)[Fuc(a1-4)]GlcNAc(b1-2)Man(a1-6)]Man(b1-4)GlcNAc(b1-4)GlcNAc
# In short: as §1
# [26] = biological target: Gal(b1-3)[Fuc(a1-4)]GlcNAc(b1-2)Man(a1-3)[Gal(b1-3)[Fuc(a1-4)]GlcNAc(b1-2)Man(a1-6)]Man(b1-4)GlcNAc(b1-4)[Fuc(a1-6)]GlcNAc
# In short: as §1
# [27] = biological target: Gal(b1-3)[Fuc(a1-4)]GlcNAc(b1-3)Gal(b1-3)[Fuc(a1-4)]GlcNAc
# In short: as §1
# [28] = biological target: Gal(b1-3)[Fuc(a1-4)]GlcNAc(b1-3)Gal(b1-4)GlcNAc
# In short: as §1
# [29] = biological target: Gal(b1-3)[Fuc(a1-4)]GlcNAc(b1-3)Gal(b1-4)[Fuc(a1-3)]GlcNAc
# In short: as §1
# [30] = biological target: Gal(b1-3)[Fuc(a1-4)]GlcNAc(b1-6)GalNAc
# In short: as §1
# [31] = biological target: Gal(b1-3)[GlcNAc(b1-6)]GalNAc
# In short: as §1
# [32] = biological target: Gal(b1-3)[Neu5Ac(a2-6)]GalNAc
# In short: as §1
# [33] = biological target: Gal(b1-3)[Neu5Ac(a2-6)]GlcNAc(b1-4)Gal(b1-4)Glc
# In short: as §1
# [34] = biological target: Gal(b1-3)[Neu5Ac(a2-6)]GlcNAc(b1-6)Gal(b1-4)Glc
# In short: as §1
# [35] = biological target: Gal(b1-3)[Neu5Ac(b2-6)]GalNAc
# In short: as §1
# Gal(b1-4)Gal = biological target: Gal(b1-4)Gal
# In short: as §1
# [36] = biological target: Gal(b1-4)GalNAc(a1-3)[Fuc(a1-2)]Gal(b1-4)GlcNAc
# In short: as §1
# [37] = biological target: Gal(b1-4)GalNAc(b1-3)[Fuc(a1-2)]Gal(b1-4)GlcNAc
# In short: as §1
# Gal(b1-4)Glc = biological target: Gal(b1-4)Glc
# In short: as §1
# Gal(b1-4)Glc6S = biological target: Gal(b1-4)Glc6S
# In short: as §1
# Gal(b1-4)GlcNAc = biological target: Gal(b1-4)GlcNAc
# In short: as §1
# [38] = biological target: Gal(b1-4)GlcNAc(a1-6)Gal(b1-4)GlcNAc
# In short: as §1
binder,measurement,setting,value
B1,glycan array binding signal (z-score),[1],-0.228
same,glycan array binding signal (z-score),[2],-0.225
same,glycan array binding signal (z-score),[3],-0.238
same,glycan array binding signal (z-score),Gal(b1-3)GlcNAc,-0.168
same,glycan array binding signal (z-score),[4],-0.241
same,glycan array binding signal (z-score),[5],-0.242
same,glycan array binding signal (z-score),Gal(b1-3)GlcNAc(b1-2)Man,-0.232
same,glycan array binding signal (z-score),[6],-0.193
same,glycan array binding signal (z-score),[7],-0.222
same,glycan array binding signal (z-score),[8],-0.22
same,glycan array binding signal (z-score),[9],-0.229
same,glycan array binding signal (z-score),[10],-0.224
same,glycan array binding signal (z-score),[11],-0.228
same,glycan array binding signal (z-score),[12],-0.232
same,glycan array binding signal (z-score),[13],-0.224
same,glycan array binding signal (z-score),[14],-0.145
same,glycan array binding signal (z-score),[15],-0.143
same,glycan array binding signal (z-score),[16],-0.221
same,glycan array binding signal (z-score),[17],-0.236
same,glycan array binding signal (z-score),[18],-0.229
same,glycan array binding signal (z-score),[19],-0.213
same,glycan array binding signal (z-score),[20],-0.235
same,glycan array binding signal (z-score),[21],-0.228
same,glycan array binding signal (z-score),[22],-0.232
same,glycan array binding signal (z-score),Gal(b1-3)GlcNAc6S,-0.229
same,glycan array binding signal (z-score),[23],-0.228
same,glycan array binding signal (z-score),[24],-0.219
same,glycan array binding signal (z-score),[25],-0.224
same,glycan array binding signal (z-score),[26],-0.195
same,glycan array binding signal (z-score),[27],-0.217
same,glycan array binding signal (z-score),[28],-0.221
same,glycan array binding signal (z-score),[29],-0.228
same,glycan array binding signal (z-score),[30],-0.215
same,glycan array binding signal (z-score),[31],-0.232
same,glycan array binding signal (z-score),[32],-0.232
same,glycan array binding signal (z-score),[33],-0.226
same,glycan array binding signal (z-score),[34],-0.223
same,glycan array binding signal (z-score),[35],-0.229
same,glycan array binding signal (z-score),Gal(b1-4)Gal,-0.217
same,glycan array binding signal (z-score),[36],-0.23
same,glycan array binding signal (z-score),[37],-0.235
same,glycan array binding signal (z-score),Gal(b1-4)Glc,-0.221
same,glycan array binding signal (z-score),Gal(b1-4)Glc6S,-0.22
same,glycan array binding signal (z-score),Gal(b1-4)GlcNAc,-0.204
same,glycan array binding signal (z-score),[38],-0.235
